{"source": "PubChem BioAssay AID1508642", "about": "(National Center for Advancing Translational Sciences (NCATS), 2021)", "note": "About 200 (0.47%) of roughly 43,000 compounds were called active. Roughly 12% stayed inconclusive and do not appear here. The call rests on the fitted dose curve; in most records, active means well fitted cell-killing curve with a large enough effect; inconclusive means small, poorly fitted or top-dose-only effect, or effect the other way; inactive means flat fitted curve, though single readings scatter. Some of the results follow. On the % scale 0 is the no-effect control and ±100 the full control effect.", "data": [{"assay": "Cell viability qHTS assay in S16 Pmp22-F2sN cells; further: nearly all actives have a fitted effect of over 65% in size", "conditions": "S16 Pmp22-F2sN Schwann cells (luciferase reporters placed in the Pmp22 gene) viability, CellTiter-Glo, 24 h; series mostly up to 57.5 µM; activity change, negative = cytotoxicity: at the top concentration", "how_it_was_run": "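Seed 500-1,000 S16 Pmp22-F2sN cells per well in phenol-red-free DMEM with 10% heat-inactivated FBS; pin-add 23 nL compound; incubate 24 h at 37C; add CellTiter-Glo, wait 15 min protected from light; read luminescence.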", "values": [{"compound": "Clc1cccc(N2CCN(c3nc4ccccc4n4nnnc34)CC2)c1", "activity change, negative = cytotoxicity": "inactive: -7.62%"}, {"compound": "COc1ccc(C(=O)Nc2ccc3oc(-c4cccnc4)nc3c2)cc1", "activity change, negative = cytotoxicity": "inactive: 0.269%"}, {"compound": "COc1ccc(C2C=C(c3ccccc3)Nc3nc(NC(=O)c4cccc([N+](=O)[O-])c4)nn32)cc1", "note": "(stereo unspecified)", "activity change, negative = cytotoxicity": "inactive: -5.3%"}, {"compound": "COc1cccc(/C=C/c2nc(C#N)c(NCCc3ccccc3)o2)c1", "activity change, negative = cytotoxicity": "inactive: -1.34%"}, {"compound": "COc1cccc(CNS(=O)(=O)c2ccc3c(c2)CCN3C(=O)C2CCC2)c1", "activity change, negative = cytotoxicity": "inactive: 17.5%"}, {"compound": "O=C(Nc1ccc(F)cc1)N1CCN(c2ccccc2F)CC1", "activity change, negative = cytotoxicity": "inactive: 0.355%"}, {"compound": "Cc1nn2c(=O)cc(COC(=O)c3ccco3)nc2s1", "activity change, negative = cytotoxicity": "inactive: 28.7%"}, {"compound": "O=C(NCc1cccs1)c1ccc(Cn2c(SCc3ccccc3)nc3cccnc32)cc1", "activity change, negative = cytotoxicity": "inactive: 5.53%"}, {"compound": "O=C(Nc1c(C(=O)N2CCN(c3ccccc3)CC2)oc2ccccc12)c1ccc(Br)o1", "activity change, negative = cytotoxicity": "inactive: -2.78%"}, {"compound": "Cc1cc(Cl)ccc1OCC(=O)Nc1c(Cl)ccc2nsnc12", "activity change, negative = cytotoxicity": "inactive: -14.1%"}, {"compound": "Cc1cc(=O)[nH]c2nnc(SCc3ccc(F)cc3)n12", "activity change, negative = cytotoxicity": "inactive: -6.16%"}, {"compound": "COc1ccc(N2C(=O)CS(=O)(=O)C23C(=O)N(Cc2cccc(F)c2)c2ccccc23)cc1OC", "note": "(stereo unspecified)", "activity change, negative = cytotoxicity": "inactive: 1.84%"}, {"compound": "O=C(CC(c1cccs1)N1Cc2ccccc2C1=O)Nc1ccc(F)c(F)c1", "note": "(stereo unspecified)", "activity change, negative = cytotoxicity": "inactive: -1.16%"}, {"compound": "Cc1ccc(C)c(S(=O)(=O)c2nnn3c2nc(Nc2ccc(C)c(C)c2)c2sccc23)c1", "activity change, negative = cytotoxicity": "inactive: 23.8%"}, {"compound": "COc1ccc(Cn2c(SCC(=O)NCc3ccc(Cl)cc3)nc3ccsc3c2=O)cc1", "activity change, negative = cytotoxicity": "inactive: 8.96%"}, {"compound": "CCOC(=O)c1ccc(-n2c(CCC(=O)O)ccc2-c2ccc(Br)cc2)cc1", "activity change, negative = cytotoxicity": "inactive: 9.78%"}, {"compound": "COc1ccc2nc3oc(C(=O)N4CCN(c5cc(C)ccc5C)CC4)cc3cc2c1", "activity change, negative = cytotoxicity": "inactive: -16.7%"}, {"compound": "CCC(=O)N1CCc2cc(S(=O)(=O)CCC(=O)Nc3ccc(OC(F)(F)F)cc3)ccc21", "activity change, negative = cytotoxicity": "inactive: -16%"}, {"compound": "COc1ccccc1N1CCN(C(=O)C(CCSC)NS(=O)(=O)c2ccc3c(c2)oc(=O)n3C)CC1", "note": "(stereo unspecified)", "activity change, negative = cytotoxicity": "inactive: 2.17%"}, {"compound": "CC(C)Oc1ccc(CNC(=O)CCCN2C(=O)CCn3nc(-c4cccn4C)cc32)cc1", "activity change, negative = cytotoxicity": "inactive: -15.9%"}, {"compound": "CCc1ccc(NCc2cc3ccc(OC)cc3n(CC(=O)Nc3ccc(F)cc3F)c2=O)cc1", "activity change, negative = cytotoxicity": "inactive: 27.3%"}, {"compound": "CCC(=O)N1c2ccccc2CC1C(=O)N1CCN(c2cccc(Cl)c2)CC1", "note": "(stereo unspecified)", "activity change, negative = cytotoxicity": "inactive: 7.87%"}, {"compound": "O=C(c1ccco1)n1nc(-c2ccccc2)nc1NCc1ccc(Cl)cc1", "activity change, negative = cytotoxicity": "inactive: -3.72%"}, {"compound": "Cc1nn(-c2ccccc2)c2c1N(CCCC(=O)NCc1ccc(N(C)C)cc1)C(=O)CS2", "activity change, negative = cytotoxicity": "inactive: 9.08%"}, {"compound": "Cc1ccc(-c2nc(-c3cc4c([nH]c3=O)CC(C)(C)CC4=O)sc2C)cc1", "activity change, negative = cytotoxicity": "inactive: 17.6%"}, {"compound": "CCCCSc1nc(-c2ccc(OC)cc2)ccc1C#N", "activity change, negative = cytotoxicity": "inactive: -1.16%"}, {"compound": "COC(=O)c1ccccc1NC(=O)Cn1c(CCC(=O)O)ccc1-c1cccs1", "activity change, negative = cytotoxicity": "inactive: -2.58%"}, {"compound": "Cc1cccc(-c2nc(C)c(CCNC(=O)C(=O)Nc3cccc(Cl)c3C)s2)c1", "activity change, negative = cytotoxicity": "inactive: 9.98%"}, {"compound": "O=C(Cn1cc(SCc2ccc(C(F)(F)F)cc2)c2ccccc21)N1CCOCC1", "activity change, negative = cytotoxicity": "inactive: -4.73%"}, {"compound": "COC(=O)CSc1ncc2c(n1)-c1ccccc1N(Cc1ccccc1C)S2(=O)=O", "activity change, negative = cytotoxicity": "inactive: 2.05%"}, {"compound": "CC(=O)c1ccc(NC(=O)CN2C(=O)CCc3ccccc32)cc1", "activity change, negative = cytotoxicity": "inactive: -11.3%"}, {"compound": "Cc1ccc(Cn2cc(CCC(=O)NC3CCC(C)CC3)c3ccccc32)cc1", "note": "(stereo unspecified)", "activity change, negative = cytotoxicity": "inactive: 11.6%"}, {"compound": "CC1CCC(Nc2nc3c(-c4ccc(Cl)cc4)nnn3c3ccccc23)CC1", "note": "(stereo unspecified)", "activity change, negative = cytotoxicity": "inactive: 2.06%"}, {"compound": "Cc1ccc2occ(CC(=O)N(Cc3ccccc3Cl)C3CCS(=O)(=O)C3)c2c1", "note": "(stereo unspecified)", "activity change, negative = cytotoxicity": "inactive: 2.33%"}, {"compound": "CCOC(=O)c1cccc(NC(=O)NCc2cccn2Cc2ccccc2)c1", "activity change, negative = cytotoxicity": "inactive: -24.3%"}, {"compound": "Cn1c(=O)oc2cc(S(=O)(=O)N3CCCC(C(=O)NCCc4ccc(Cl)cc4)C3)ccc21", "note": "(stereo unspecified)", "activity change, negative = cytotoxicity": "inactive: 4.24%"}, {"compound": "COc1ccccc1CNS(=O)(=O)c1ccc2c(c1)NC(=O)C(C)C(=O)N2", "note": "(stereo unspecified)", "activity change, negative = cytotoxicity": "inactive: 0.38%"}, {"compound": "CC(=O)Nc1ccc(/C=C/c2nc(-c3ccccc3O)n(-c3ccccc3)n2)cc1", "activity change, negative = cytotoxicity": "inactive: 16.9%"}, {"compound": "CCC(=O)N1CCc2cc(Br)cc(S(=O)(=O)N3CCN(c4ccc(C)cc4)C(C)C3)c21", "note": "(stereo unspecified)", "activity change, negative = cytotoxicity": "inactive: 13.2%"}, {"compound": "CCOC(=O)c1c(C)[nH]c(C)c1S(=O)(=O)N1CCC(C(=O)N2CCN(c3ccccc3)CC2)CC1", "activity change, negative = cytotoxicity": "inactive: 5.1%"}, {"compound": "O=C(NCc1ccccc1Cl)C1CCCN(S(=O)(=O)c2cccc3nsnc23)C1", "note": "(stereo unspecified)", "activity change, negative = cytotoxicity": "inactive: -11.5%"}, {"compound": "COc1ccc(OC)c(CNC(=O)c2c3c(nc4ccccc24)C(=O)N(C2CCCCC2)C3)c1", "activity change, negative = cytotoxicity": "inactive: -1.53%"}, {"compound": "CCOC(=O)c1c(C)[nH]c(C)c1S(=O)(=O)N1CCC(C(=O)N2CCN(c3cccc(Cl)c3)CC2)CC1", "activity change, negative = cytotoxicity": "inactive: -5%"}, {"compound": "Cc1ccccc1-c1noc(-c2cccnc2NCc2ccco2)n1", "activity change, negative = cytotoxicity": "inactive: 0.629%"}, {"compound": "COc1ccc(OCC(=O)NC2CC(=O)N(c3cccc(OC)c3)C2)cc1", "note": "(stereo unspecified)", "activity change, negative = cytotoxicity": "inactive: 3.65%"}, {"compound": "CCOC(=O)c1c(S(=O)(=O)N2CCC(C(=O)NCc3ccc(F)cc3)CC2)c(C)n(C)c1C", "activity change, negative = cytotoxicity": "inactive: -16.5%"}, {"compound": "Cc1cccc(N(C)C(=O)CCS(=O)(=O)c2ccc3c(c2)oc(=O)n3C)c1", "activity change, negative = cytotoxicity": "inactive: -9.53%"}, {"compound": "COc1ccc(NC(=O)CN2CCN(Cc3ccc(F)cc3)S2(=O)=O)cc1Cl", "activity change, negative = cytotoxicity": "inactive: -19%"}, {"compound": "COc1ccc(NC(=O)c2cc(S(=O)(=O)N3CCCCCC3)cn2C)c(OC)c1", "activity change, negative = cytotoxicity": "inactive: 26.1%"}, {"compound": "Cc1cccc(C)c1NC(=O)NCCc1c[nH]c2ccccc12", "activity change, negative = cytotoxicity": "inactive: 4%"}, {"compound": "CCCNC(=O)C1CCC(Cn2c(=O)c3sccc3n(Cc3ccccc3F)c2=O)CC1", "note": "(stereo unspecified)", "activity change, negative = cytotoxicity": "inactive: -1.73%"}, {"compound": "COCCCn1c(=N)c(C(=O)NCc2ccco2)cc2c(=O)n3ccccc3nc21", "activity change, negative = cytotoxicity": "inactive: -2.16%"}, {"compound": "Cc1ccc(-n2c3nc(=O)[nH]c(=O)c-3cc3c(C)nn(-c4ccccc4)c32)cc1Cl", "activity change, negative = cytotoxicity": "inactive: -5.67%"}, {"compound": "O=C(NC1CCCCC1)c1ccc(Cn2c(SCc3ccc(F)cc3)nc3cccnc32)cc1", "activity change, negative = cytotoxicity": "inactive: -8.39%"}, {"compound": "Cc1ccc2c(c1)-c1onc(C(=O)N3CCN(c4ccc(Cl)cc4)CC3)c1CO2", "activity change, negative = cytotoxicity": "inactive: 0.998%"}, {"compound": "O=S(=O)(c1ccccc1)c1nnn2c1nc(NCc1ccc(F)cc1)c1sccc12", "activity change, negative = cytotoxicity": "inactive: -9.28%"}, {"compound": "Brc1ccc(-c2nc3ccccn3c2Nc2ccc3c(c2)OCCO3)o1", "activity change, negative = cytotoxicity": "inactive: -20.3%"}, {"compound": "CCCCN(CC)C(=O)CSc1nc2n[nH]c(C)c2c(=N)n1-c1cccc(OC)c1", "activity change, negative = cytotoxicity": "inactive: -27.8%"}, {"compound": "Cc1oc(-c2ccc(Cl)cc2)nc1CS(=O)CC(=O)N1CCN(c2cccc(C(F)(F)F)c2)CC1", "note": "(stereo unspecified)", "activity change, negative = cytotoxicity": "inactive: -27.8%"}, {"compound": "COc1ccccc1CNC(=O)CCn1nc(C)c2c(C)n(-c3ccccc3)nc2c1=O", "activity change, negative = cytotoxicity": "inactive: -7.88%"}, {"compound": "O=C(C1COc2ccccc2O1)N1CCN(c2nc3ccc(F)cc3s2)CC1", "note": "(stereo unspecified)", "activity change, negative = cytotoxicity": "inactive: -28.9%"}]}]}
